{
  "source": "patent US6699677",
  "about": "(CHEMOCENTRYX, dated 2004)",
  "binders": {"B1": {"name": "MIP3a-FRAC (MIP3alpha stalkokine) (ligand, not shown: small tags and cut ends)", "chain": "not shown", "notes": "mature; also called MIP3a (stalkokine form)"}},
  "target": "T1, CCR6 on transfected mouse myeloma NSO cells (UniProt P51684 1-374, limits assumed)",
  "T1 construct": "whole, on cells; also called CCR6-NSO",
  "T1 sequence (looked up)": "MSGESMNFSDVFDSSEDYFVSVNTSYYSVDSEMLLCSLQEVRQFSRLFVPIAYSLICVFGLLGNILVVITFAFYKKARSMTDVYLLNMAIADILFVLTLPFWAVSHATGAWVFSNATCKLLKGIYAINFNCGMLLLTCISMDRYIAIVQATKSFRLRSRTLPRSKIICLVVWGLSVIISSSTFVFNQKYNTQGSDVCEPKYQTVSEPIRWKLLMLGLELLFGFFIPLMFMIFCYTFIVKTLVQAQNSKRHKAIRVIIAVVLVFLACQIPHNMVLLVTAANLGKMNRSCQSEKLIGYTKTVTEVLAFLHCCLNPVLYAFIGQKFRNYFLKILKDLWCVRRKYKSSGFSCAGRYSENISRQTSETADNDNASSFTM",
  "assay": "adhesion of receptor-expressing NSO cells to immobilized stalkokine",
  "data": [
    {"binder": "B1", "values": [
      {"measurement": "binding result", "value": "binds"}
    ]}
  ]
}
